Experiment [1] deals with T1, endogenous PKD2 of mouse kidney (mouse (endogenous in C57BL/6 kidney)) (UniProt O35245).
T1 sequence: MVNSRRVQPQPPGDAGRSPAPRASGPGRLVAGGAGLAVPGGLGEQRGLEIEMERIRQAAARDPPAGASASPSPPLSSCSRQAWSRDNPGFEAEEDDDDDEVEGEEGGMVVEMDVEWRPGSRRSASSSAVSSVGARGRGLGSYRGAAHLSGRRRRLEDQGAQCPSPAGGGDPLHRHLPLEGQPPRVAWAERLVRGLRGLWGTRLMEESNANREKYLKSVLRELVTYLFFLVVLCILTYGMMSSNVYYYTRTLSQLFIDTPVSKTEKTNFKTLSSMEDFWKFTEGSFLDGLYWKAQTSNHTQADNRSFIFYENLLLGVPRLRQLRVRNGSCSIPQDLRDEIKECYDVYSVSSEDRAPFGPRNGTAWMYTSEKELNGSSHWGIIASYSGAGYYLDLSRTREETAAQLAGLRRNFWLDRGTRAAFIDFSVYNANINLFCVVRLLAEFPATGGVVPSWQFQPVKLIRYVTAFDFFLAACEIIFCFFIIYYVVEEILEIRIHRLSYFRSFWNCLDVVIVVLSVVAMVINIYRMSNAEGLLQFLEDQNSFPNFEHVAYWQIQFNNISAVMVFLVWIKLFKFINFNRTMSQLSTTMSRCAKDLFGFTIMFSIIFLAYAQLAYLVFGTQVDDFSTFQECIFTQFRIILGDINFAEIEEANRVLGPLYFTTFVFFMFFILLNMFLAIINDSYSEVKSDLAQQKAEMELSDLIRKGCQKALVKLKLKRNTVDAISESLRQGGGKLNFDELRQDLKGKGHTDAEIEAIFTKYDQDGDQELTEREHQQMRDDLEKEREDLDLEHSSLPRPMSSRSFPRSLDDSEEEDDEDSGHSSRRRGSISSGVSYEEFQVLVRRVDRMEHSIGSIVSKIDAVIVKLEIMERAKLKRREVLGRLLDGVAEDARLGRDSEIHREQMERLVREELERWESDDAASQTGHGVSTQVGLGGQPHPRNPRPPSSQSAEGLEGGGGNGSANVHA
Briefly: co-IP; kidney lysate of an 8-week-old C57BL/6 mouse, both proteins endogenous.

Experiment [2] deals with T2, VC-PKD2 (Venus C-terminal half fused to PKD2) (human) (UniProt Q13563).
T2 sequence: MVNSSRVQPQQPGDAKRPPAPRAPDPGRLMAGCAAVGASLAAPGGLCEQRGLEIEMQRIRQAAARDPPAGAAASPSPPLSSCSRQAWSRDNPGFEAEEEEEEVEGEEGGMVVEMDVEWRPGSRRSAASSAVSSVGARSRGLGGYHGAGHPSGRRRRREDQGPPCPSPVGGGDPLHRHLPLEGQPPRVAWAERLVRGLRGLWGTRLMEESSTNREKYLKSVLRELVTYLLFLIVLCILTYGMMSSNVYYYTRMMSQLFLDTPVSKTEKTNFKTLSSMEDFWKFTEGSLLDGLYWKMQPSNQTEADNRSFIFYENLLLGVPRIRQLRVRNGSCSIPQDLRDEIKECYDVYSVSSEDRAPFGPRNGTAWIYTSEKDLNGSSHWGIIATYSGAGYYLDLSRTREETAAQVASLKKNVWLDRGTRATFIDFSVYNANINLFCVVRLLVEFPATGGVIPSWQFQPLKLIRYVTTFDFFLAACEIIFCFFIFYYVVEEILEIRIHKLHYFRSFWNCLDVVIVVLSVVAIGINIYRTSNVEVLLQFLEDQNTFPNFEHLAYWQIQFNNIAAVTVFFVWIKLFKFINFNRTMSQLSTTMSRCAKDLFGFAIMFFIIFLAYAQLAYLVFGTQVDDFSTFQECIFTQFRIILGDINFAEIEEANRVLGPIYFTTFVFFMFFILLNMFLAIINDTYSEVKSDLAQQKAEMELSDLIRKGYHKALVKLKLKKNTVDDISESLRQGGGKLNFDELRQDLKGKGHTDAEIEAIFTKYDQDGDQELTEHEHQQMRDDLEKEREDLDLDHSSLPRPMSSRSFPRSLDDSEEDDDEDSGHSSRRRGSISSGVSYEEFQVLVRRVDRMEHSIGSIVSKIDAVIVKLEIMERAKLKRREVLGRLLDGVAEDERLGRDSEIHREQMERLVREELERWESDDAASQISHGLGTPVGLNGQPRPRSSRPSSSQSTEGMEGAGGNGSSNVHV
Put plainly: split reporter; BiFC with Venus halves VN and VC fused to the N-terminal ends, transfected HEK cells, confocal microscopy 36-48 h after transfection.

Experiment [3] concerns the target T3, GST-tagged RASSF4 (human) (UniProt Q9H2L5).
T3 sequence: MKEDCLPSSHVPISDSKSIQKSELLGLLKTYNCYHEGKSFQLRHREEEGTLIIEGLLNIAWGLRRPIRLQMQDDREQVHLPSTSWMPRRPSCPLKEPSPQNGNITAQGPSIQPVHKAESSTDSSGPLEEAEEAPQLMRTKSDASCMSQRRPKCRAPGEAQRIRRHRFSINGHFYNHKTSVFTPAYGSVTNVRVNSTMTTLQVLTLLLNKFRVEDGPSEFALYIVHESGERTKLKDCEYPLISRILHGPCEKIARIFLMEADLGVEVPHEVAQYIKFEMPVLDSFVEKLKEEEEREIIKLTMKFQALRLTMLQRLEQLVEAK
Put plainly: pull-down; purified GST-tagged protein on glutathione beads incubated overnight at 4 °C with lysate of HEK cells over-expressing the Flag-tagged protein; washes in 50 mM Tris/HCl pH 7.5, 150 mM NaCl, 1 mM EDTA, 0.5% Nonidet P-40; Western blot; only the target purified. A general note: A western blot detects proteins with antibodies after separation by electrophoresis.

Experiment [4] addresses T4, GST-RASSF4 truncation protein M1-P156 (human) (UniProt Q9H2L5).
T4 sequence: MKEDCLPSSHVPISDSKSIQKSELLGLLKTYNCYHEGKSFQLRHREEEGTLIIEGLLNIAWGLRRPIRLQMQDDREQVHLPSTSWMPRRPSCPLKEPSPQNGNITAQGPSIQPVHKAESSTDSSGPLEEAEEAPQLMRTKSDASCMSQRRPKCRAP
Described as above.

No constants are given. Whether binding was seen depends on the method and setting. In cells and extracts the contact can be indirect. Some results given as binding are weak or reduced against the parent protein; the word gives no strength. For some of these results: Tags and fused reporters may be left off the sequences shown.

B1: endogenous RASSF4 of mouse kidney (protein, UniProt Q8CB96 1-322)
chain: MKEACSSSSHVPVSDSKYILKSELLSLLKTYNCYHEGRSFQLRHREEEGTLIIEGLLNIAWGLRRPIRLQMQDDRERVHLPSATWVPERLSYLQKEASPQDSKVPTEEPGTQPANKAEVSGDSSGALEGEEEEVPQLMRTKSDASCIIQRRSKSRAPSEAQKIRRHRFSINGHFYNHKTSVFTPAYGSVTNVRVNSTMTTQQVLTLLLNKFRVEDGPSEFALYTVHESGEQTKLKDCEYPLISRILHGPCEKIVKIFLMEADLSEEVPHDVAQYIKFEMPVLDSFVEKLKEEEEREIIKLTMKFQALRLTMLQRLEQLVEAK
For the molecule B1, the binding entry in experiment [1] is given as “binds”.

B2: VN-RASSF4 (Venus N-terminal half fused to RASSF4) (protein, UniProt Q9H2L5 1-321)
chain: MKEDCLPSSHVPISDSKSIQKSELLGLLKTYNCYHEGKSFQLRHREEEGTLIIEGLLNIAWGLRRPIRLQMQDDREQVHLPSTSWMPRRPSCPLKEPSPQNGNITAQGPSIQPVHKAESSTDSSGPLEEAEEAPQLMRTKSDASCMSQRRPKCRAPGEAQRIRRHRFSINGHFYNHKTSVFTPAYGSVTNVRVNSTMTTLQVLTLLLNKFRVEDGPSEFALYIVHESGERTKLKDCEYPLISRILHGPCEKIARIFLMEADLGVEVPHEVAQYIKFEMPVLDSFVEKLKEEEEREIIKLTMKFQALRLTMLQRLEQLVEAK
For B2, the binding result in experiment [2] was “binds”.

B3: Flag-tagged PKD2 (protein, UniProt Q13563 1-968)
chain: MVNSSRVQPQQPGDAKRPPAPRAPDPGRLMAGCAAVGASLAAPGGLCEQRGLEIEMQRIRQAAARDPPAGAAASPSPPLSSCSRQAWSRDNPGFEAEEEEEEVEGEEGGMVVEMDVEWRPGSRRSAASSAVSSVGARSRGLGGYHGAGHPSGRRRRREDQGPPCPSPVGGGDPLHRHLPLEGQPPRVAWAERLVRGLRGLWGTRLMEESSTNREKYLKSVLRELVTYLLFLIVLCILTYGMMSSNVYYYTRMMSQLFLDTPVSKTEKTNFKTLSSMEDFWKFTEGSLLDGLYWKMQPSNQTEADNRSFIFYENLLLGVPRIRQLRVRNGSCSIPQDLRDEIKECYDVYSVSSEDRAPFGPRNGTAWIYTSEKDLNGSSHWGIIATYSGAGYYLDLSRTREETAAQVASLKKNVWLDRGTRATFIDFSVYNANINLFCVVRLLVEFPATGGVIPSWQFQPLKLIRYVTTFDFFLAACEIIFCFFIFYYVVEEILEIRIHKLHYFRSFWNCLDVVIVVLSVVAIGINIYRTSNVEVLLQFLEDQNTFPNFEHLAYWQIQFNNIAAVTVFFVWIKLFKFINFNRTMSQLSTTMSRCAKDLFGFAIMFFIIFLAYAQLAYLVFGTQVDDFSTFQECIFTQFRIILGDINFAEIEEANRVLGPIYFTTFVFFMFFILLNMFLAIINDTYSEVKSDLAQQKAEMELSDLIRKGYHKALVKLKLKKNTVDDISESLRQGGGKLNFDELRQDLKGKGHTDAEIEAIFTKYDQDGDQELTEHEHQQMRDDLEKEREDLDLDHSSLPRPMSSRSFPRSLDDSEEDDDEDSGHSSRRRGSISSGVSYEEFQVLVRRVDRMEHSIGSIVSKIDAVIVKLEIMERAKLKRREVLGRLLDGVAEDERLGRDSEIHREQMERLVREELERWESDDAASQISHGLGTPVGLNGQPRPRSSRPSSSQSTEGMEGAGGNGSSNVHV
Consider B3, for which the binding result in experiment [3] and in experiment [4] was “binds” in each case.

(Values after article PMC13434659.)
